Target: CYP2C9 (Homo sapiens (Human), UniProt P11712)
Format: in vitro ADME
Settings: 10 μM, human hepatocytes, compared to native cells

SMILES: COc1ccc(CC(=O)O)cc1Oc1ccc(NC(=O)C(C)(C)C)cc1CSC(C)(C)C [Compound 1, 2-(3-(2-((tert-butylthio)methyl)-4-(2,2-dimethyl-propionylamino)phenoxy)-4-methoxyphenyl)acetic acid]
- fold increase in 4-hydroxydiclofenac (CYP2C9) production: 0.5 fold
